Experimental data reported in PubChem BioAssay AID485294 (National Center for Advancing Translational Sciences (NCATS), 2010).
In all, about 370,000 compounds went through this assay and about 150 (0.041%) were called active. The inconclusive results got no clear call from the source; some entries with a clear call stand among them for comparison. The call rests on the fitted dose curve; in most records, active means well fitted inhibition curve with a large enough effect; inconclusive means small, poorly fitted or top-dose-only effect; inactive means flat fitted curve, though single readings scatter. Potencies of inconclusive entries are left out as doubtful fits.

The compounds below were run against Beta-lactamase (Escherichia coli (strain K12)) (UniProt P00811) (assay: qHTS Inhibitors of AmpC Beta-Lactamase (assay with detergent)). Conditions: AmpC hydrolysis of nitrocefin, absorbance 480 nm, 0.01% Triton; activity change, negative = inhibition: at 114 µM (top of the series).
Method in brief: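 AmpC (5.3 nM in the dispensed reagent) in 20 mM phosphate pH 7.0 with 0.01% (detergent screen) or 0.0001% Triton X-100 was preincubated with compounds for 15 min at room temperature. Nitrocefin was then added from an 800 uM solution, and hydrolysis was followed at 480 nm.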
Further: nearly all actives have a fitted effect of over 25% in size.
Potency means the concentration at half of the fitted maximal effect; tags describe the fitted curve by direction and shape.
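Wherever activity change, negative = inhibition is given: 0% = no-compound wells and -100% = no-enzyme wells.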

Chain of UniProt P00811 (P00811 whole entry, looked up): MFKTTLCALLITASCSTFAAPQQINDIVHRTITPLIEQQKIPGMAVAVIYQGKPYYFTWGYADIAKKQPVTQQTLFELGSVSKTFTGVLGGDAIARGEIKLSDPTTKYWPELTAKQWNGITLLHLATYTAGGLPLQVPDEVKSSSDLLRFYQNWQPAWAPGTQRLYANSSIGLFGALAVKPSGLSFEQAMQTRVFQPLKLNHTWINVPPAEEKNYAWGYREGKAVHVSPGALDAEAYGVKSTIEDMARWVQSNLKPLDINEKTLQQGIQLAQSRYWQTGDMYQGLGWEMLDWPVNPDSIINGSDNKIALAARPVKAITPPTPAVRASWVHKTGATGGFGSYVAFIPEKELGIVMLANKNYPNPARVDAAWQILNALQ

Row | Structure (SMILES) | activity change, negative = inhibition | Potency
1 | CCn1nc(-c2ccccc2)c(-c2ccccc2)c(C(=O)Nc2ccc(NC(C)=O)cc2)c1=O | inactive: 14.5% | 
2 | CC1CCN(C(C)C(=O)Nc2ccccc2-c2ccccc2)CC1 (stereo not drawn) |  | inconclusive [inhibitor, full curve]
3 | O=[N+]([O-])c1cc(S(=O)(=O)N2CCCC2)ccc1OCc1ccccc1 | inactive: -1.91% | 
4 | Cc1n(Cc2ccccc2)c2cc([N+](=O)[O-])ccc2[n+]1Cc1ccccc1 |  | inconclusive [inhibitor, full curve, poor fit]
5 | Cc1cccc2cc(/C=C3\N=C(c4ccccc4)OC3=O)c(N3CCOCC3)nc12 |  | inconclusive [inhibitor, single point]
6 | O=C(COc1ccc(Br)cc1)N1CCN(c2ccc([N+](=O)[O-])c(N3CCCCC3)c2)CC1 |  | inconclusive [inhibitor, partial curve, poor fit]
7 | O=C(CSc1nccc(=O)[nH]1)NCc1ccc(Cl)cc1 | inactive: -0.584% | 
8 | Cc1ccc(SC(c2ccccc2)C(Cn2cncn2)C(=O)c2ccccc2)cc1 (stereo not drawn) |  | inconclusive [inhibitor, single point]
9 | COc1cccc(/C=N/n2c(CO)nc3ccccc32)c1OC |  | inconclusive [inhibitor, full curve]
10 | CCOC(=O)C1(CCOc2ccccc2)CCN(Cc2ccc(OC)c(COC)c2)CC1 | inactive: -14.6% | 
11 | O=C1NCCCC1C(=O)N/N=C/c1cccc(O)c1 (stereo not drawn) |  | inconclusive [inhibitor, full curve, poor fit]
12 | Brc1ccc(-c2nnc3sc(CNCc4ccc5c(c4)OCO5)cn23)cc1 |  | inconclusive [inhibitor, full curve, poor fit]
13 | CCOC(=O)C1=C(C)N=C2SC(C)C(=O)N2C1c1ccc(OC(C)=O)c(OCC)c1 (stereo not drawn) |  | inconclusive [inhibitor, full curve]
14 | CCOC(=O)c1c(C)[nH]c(N=Nc2ccc(C)cc2)c1C | inactive: -5.31% | 
15 | CCNC(=O)C1CCCN1S(=O)(=O)c1ccc2ccccc2c1 (stereo not drawn) |  | inconclusive [inhibitor, partial curve, poor fit]
16 | CCCn1c(NC(=O)c2ccco2)nc2ccccc21 |  | inconclusive [inhibitor, single point]
17 | CCC(C)(C(=O)NC1CCCC1)N(C(=O)CNC(=O)c1ccccc1)c1c(C)n(C)n(-c2ccccc2)c1=O (stereo not drawn) |  | inconclusive [inhibitor, single point]
18 | Cc1ccc(-n2nnnc2C(Cl)c2nnnn2-c2ccc(C)cc2)cc1 | inactive: -5.98% | 
19 | Cc1nc([N+](=O)[O-])cn1CC(=O)c1ccc(Cl)cc1 |  | inconclusive [inhibitor, full curve, poor fit]
20 | Cc1ccnc(NC(=O)CCC(=O)c2cc(C)sc2C)c1 |  | inconclusive [inhibitor, full curve, poor fit]
21 | COc1ccc(CNC(=O)Nc2ccc(C)cc2C)cc1 |  | inconclusive [inhibitor, partial curve]
22 | COc1ccc(NC2CCCN(C(=O)c3ccccc3N3CCOCC3)C2)cc1OC (stereo not drawn) |  | inconclusive [inhibitor, partial curve, poor fit]

Row | Structure (SMILES) | activity change, negative = inhibition | Potency
23 | Cn1c(=O)c2c(nc(SCC(=O)c3cccs3)n2Cc2ccc(F)cc2)n(C)c1=O | inactive: -14.4% | 
24 | CCOC(=O)NN1C(=O)c2ccccc2NC1c1ccccn1 (stereo not drawn) |  | inconclusive [inhibitor, single point]
25 | Cc1ccc(NC(=S)NNC(=O)c2ccco2)cc1 | inactive: 14.6% | 
26 | O=C1C(Cl)=C(NCC2CCCO2)C(=O)N1C1CCCCC1 (stereo not drawn) | inactive: 3.08% | 
27 | COc1ccc(NC(=O)NCCN2C(=O)C3C4C=CC(C4)C3C2=O)cc1 (stereo not drawn) |  | inconclusive [inhibitor, full curve]
28 | COc1ccccc1C(=O)NNC(=O)c1cccc(O)c1 | inactive: -12.3% | 
29 | CCOC(=O)N1CCN(CC(=O)N2c3ccccc3CC2C)CC1 (stereo not drawn) |  | inconclusive [inhibitor, full curve, poor fit]
30 | O=C(Nc1c(C(=O)N2CCCCC2)cnn1-c1ccccc1)c1ccccc1 |  | inconclusive [inhibitor, full curve, poor fit]
31 | CCN(CC)S(=O)(=O)c1ccc2c(c1)nc(CN(C)C(=O)Nc1ccc(C)c(F)c1)n2C | inactive: 11.6% | 
32 | COc1ccc(S(=O)(=O)N2CCOC23CCN(S(=O)(=O)c2ccc(C)cc2)CC3)cc1 | inactive: -10.3% | 
33 | CCC(=O)N1CCc2cc(Br)cc(S(=O)(=O)CCC(=O)N3CCN(c4cc(C)ccc4C)CC3)c21 |  | inconclusive [inhibitor, single point]
34 | c1ccc(Cn2c(CNc3nc4ccccc4n3CCN3CCOCC3)nc3ccccc32)cc1 |  | inconclusive [inhibitor, partial curve, poor fit]
35 | CC(NC(=O)CC12CC3CC(CC(C3)C1)C2)C(=O)O (stereo not drawn) | inactive: -4.81% | 
36 | CCCCCCCNC(=O)C1(CC2CC(c3cccc(Br)c3)=NO2)CCN(C(=O)Cc2ccc(F)cc2)CC1 (stereo not drawn) |  | inconclusive [inhibitor, single point]
37 | COc1ccc(S(=O)(=O)N2CCCCC2)cc1NC(=O)CCCOc1ccc(C)cc1 | inactive: 6.41% | 
38 | c1ccc2c(c1)[nH]c1c(NCC3CCCO3)ncnc12 (stereo not drawn) |  | inconclusive [inhibitor, full curve]
39 | O=C(CN(c1ccc2c(c1)OCCO2)S(=O)(=O)c1ccccc1)NCC1CCCO1 (stereo not drawn) |  | inconclusive [inhibitor, full curve, poor fit]
40 | Cc1c(C(=O)OC2CCCCC2)[nH]c2c1C(=O)CC(c1ccc(C(C)(C)C)cc1)C2 (stereo not drawn) | inactive: 10.7% | 
41 | CC1CCCCC1NC(=O)C1CCCN(S(=O)(=O)c2ccc(-n3cnnn3)cc2)C1 (stereo not drawn) |  | inconclusive [inhibitor, partial curve, poor fit]
42 | Nc1nc(-c2ccccc2)c(-c2ccccc2)s1 |  | inconclusive [inhibitor, full curve, poor fit]
43 | COC(=O)c1c(NC(=O)C2CC2)sc2c1CCCC2 |  | inconclusive [inhibitor, full curve]
